The list shows a part of the results.
What follows are molecules tested on HepG2 (assay: cytotoxicity call (relative viability < 0.9)). Conditions: 10 µM.
In the case of C[C@H](CO)N1C[C@H](C)[C@H](CN(C)S(=O)(=O)c2cccc(F)c2)Oc2ncc(C#CCN(C)C)cc2C1=O, the cytotoxicity call was “inactive”.
With C[C@@H]1CN([C@@H](C)CO)S(=O)(=O)c2ccc(C#CC(C)(C)O)cc2O[C@@H]1CN(C)C(=O)C1CCCCC1 the cytotoxicity call was “inactive”.
For CO[C@H]1CN(C)C(=O)c2cc(NS(=O)(=O)CC(F)(F)F)ccc2OC[C@H](C)N(Cc2cccnc2)C[C@H]1C, the cytotoxicity call was “inactive”.
With Cc1noc(C)c1NC(=O)Nc1ccc2c(c1)C(=O)N([C@@H](C)CO)C[C@@H](C)[C@@H](CN(C)C(=O)Nc1ccccc1)OCCCC[C@@H](C)O2 the cytotoxicity call was “inactive”.
In the case of C[C@@H]1CN([C@H](C)CO)C(=O)c2cc(NS(=O)(=O)c3ccc(Cl)cc3)ccc2O[C@@H](C)CCCCO[C@H]1CN(C)Cc1ccccc1, the cytotoxicity call was “inactive”.
With CCCNC(=O)N1[C@@H]2Cn3c(cccc3=O)[C@H]1[C@@H](C(=O)NCC(F)(F)F)[C@@H]2CO the cytotoxicity call was “inactive”.
NC(=O)CCC(N)C(=O)O (stereo unspecified) was tested, and the cytotoxicity call was “active”.
For CS(=O)(=O)N1C[C@H]2C[C@@H](F)[C@@H](O)[C@@H]2C1, the cytotoxicity call was “inactive”.
For C[C@@H]1CN([C@@H](C)CO)C(=O)c2cc(NC(=O)c3ccccc3)ccc2O[C@@H](C)CCCCO[C@@H]1CN(C)C(=O)Nc1ccc(C(F)(F)F)cc1, the cytotoxicity call was “active”.
In the case of C[C@@H]1CN([C@@H](C)CO)C(=O)c2cccc(NS(=O)(=O)c3ccc(Cl)cc3)c2O[C@@H]1CN(C)C(=O)Nc1cccc2ccccc12, the cytotoxicity call was “inactive”.
For C[C@@H]1CCCCO[C@H](CN(C)S(=O)(=O)c2ccc(F)cc2)[C@H](C)CN([C@@H](C)CO)C(=O)c2cc(NS(=O)(=O)c3ccc(Cl)cc3)ccc2O1, the cytotoxicity call was “active”.
